About 230 (0.21%) of roughly 110,000 compounds showed an effect of 50% or more. The list shows a part of the results.
What follows are molecules tested against DPAP1 (Plasmodium falciparum, UniProt Q8IIJ9) (assay: primary screen, percent inhibition; read by cleavage of a fluorogenic dipeptide substrate; higher = more effect of the substance).
Set-up: species or system P. falciparum D10 trophozoite lysates; single well
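Note: 30 min substrate incubation versus DMSO and 10 µM JCP410 controls.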

Chain of DPAP1 (Q8IIJ9 whole entry, looked up): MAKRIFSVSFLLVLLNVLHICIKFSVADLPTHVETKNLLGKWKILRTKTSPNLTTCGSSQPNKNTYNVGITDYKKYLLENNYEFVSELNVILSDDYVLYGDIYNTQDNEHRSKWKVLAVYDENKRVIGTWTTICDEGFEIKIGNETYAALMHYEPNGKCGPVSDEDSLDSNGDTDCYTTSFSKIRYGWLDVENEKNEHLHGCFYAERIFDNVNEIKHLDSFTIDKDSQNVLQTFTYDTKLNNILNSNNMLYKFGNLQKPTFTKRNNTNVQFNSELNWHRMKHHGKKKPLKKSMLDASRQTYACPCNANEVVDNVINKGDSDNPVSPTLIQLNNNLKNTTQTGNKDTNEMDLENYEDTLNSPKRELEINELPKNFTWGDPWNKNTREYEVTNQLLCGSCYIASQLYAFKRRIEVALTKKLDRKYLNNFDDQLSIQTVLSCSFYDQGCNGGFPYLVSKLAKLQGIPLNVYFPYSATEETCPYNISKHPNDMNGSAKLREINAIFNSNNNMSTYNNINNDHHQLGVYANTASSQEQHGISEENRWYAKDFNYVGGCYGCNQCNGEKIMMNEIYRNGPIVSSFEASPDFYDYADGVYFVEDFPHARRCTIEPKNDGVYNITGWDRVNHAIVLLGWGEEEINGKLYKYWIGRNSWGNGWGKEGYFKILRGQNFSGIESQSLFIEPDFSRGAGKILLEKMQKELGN

SMILES | % Inhibition @ 10 uM [%]
Cc1noc2ncnc(NCCCN3CCOCC3)c12 | 0.708
CN(CCNC(=O)Cn1ncc2c3ccccc3n(Cc3ccccc3)c2c1=O)C1CCCCC1 | 12
CCCOc1ccccc1C(=O)Nc1cc(-c2ccc(C)cc2)no1 | -6.98
CCc1ccc2nc(N(CCN(C)C)C(=O)C3COc4ccccc4O3)sc2c1 (stereo not drawn) | -8.56
CC(C)(C)C1CCc2c(sc(NC(=O)c3ccccc3)c2C(N)=O)C1 (stereo not drawn) | -5.46
O=C(c1cc2c(=O)oc3ccccc3c2s1)N1CCN(Cc2ccc3c(c2)OCO3)CC1 | -1.62
O=C1NC(=S)N/C1=C/c1ccccc1Cl | 2.65
Cc1ccc(-n2ncc3c(O)nc(SCC(=O)NCc4ccco4)nc32)cc1C | -3.35
Cc1cc2nc3s/c(=C\c4ccc5c(c4)n(C)c(=O)n5C)c(=O)n3c2cc1C | -1.66
CCOC(=O)c1cc2c(=O)n3ccccc3nc2n(C2CCCCC2)/c1=N\C(=O)/C=C/c1ccccc1 | -5.57
CCCC(=O)c1cc2cc(Cl)ccc2oc1=O | 9.08
O=C(CCN1C(=O)c2ccccc2C1=O)NCc1ccco1 | 15.6
O=C(COCc1cc(-c2cccs2)on1)NC1CCCc2ccccc21 (stereo not drawn) | -0.234
COc1cc(Br)cc(/C=C2/NC(=O)N(Cc3ccc(Cl)cc3)C2=O)c1OC | 5.37
CC1=C(C(=O)Nc2ccccc2)C(c2cccs2)n2c(s/c(=C/c3cnn(C)c3)c2=O)=N1 (stereo not drawn) | 0.35
CC1(Cc2nc3ccccc3[nH]2)OCCO1 | -3.48
COCCNC(=O)c1cc(-c2ccc(OC)cc2)on1 | 4.5
CCOC(=O)N1CCN(C(=O)c2ccc(CN(c3ccccc3)S(C)(=O)=O)cc2)CC1 | -0.0925
O=C(CCc1nc(-c2ccc(Cl)cc2)no1)N1CCCC1 | 0.366
CC(C)(C)CC(=O)O/N=C(\N)c1cccnc1 | 3.34
CCCOc1cccc(C2c3c(-c4cc(C)ccc4O)n[nH]c3C(=O)N2CCO)c1 (stereo not drawn) | -1.15

SMILES | % Inhibition @ 10 uM [%]
CS(=O)(=O)N(CC(=O)NC1CCCC1)c1ccc(Br)cc1 | 3.32
NCCc1csc2c1CCCC2 | -8.91
CSC1=C(C#N)C(c2ccc(C(C)C)cc2)CC(=O)N1 (stereo not drawn) | 0.101
O=C(NCCCN1CCN(Cc2ccccc2)CC1)C1CCN(c2nnc(-n3cccc3)s2)CC1 | 1.15
CCCCNc1c(C)c(O)c(CC(=O)Nc2ccccc2)c2cc(OC)c(OC)cc12 | 12.1
COc1cc(/C=c2/sc3nc4cc(C)c(C)cc4n3c2=O)ccc1O | 7.62
CC(C)Sc1ncc(Cl)c(C(=O)Nc2sc3c(c2C(N)=O)CCCC3)n1 | 0.758
O=C(CN1CCN(Cc2ccccc2Cl)C1=O)N1CCOCC1 | -1.83
Oc1sc2ccccc2c2ncnc1-2 | 2.05
C=CCn1c(SCC(=O)NCC2CCCO2)nc2sc3c(c2c1=O)CCC(C)C3 (stereo not drawn) | -4.61
O=C1CCCCCC1CN1CCCCC1 (stereo not drawn) | 1.12
CC1(C)CC(C)(c2ccc(O)cc2O)Oc2cc(O)ccc21 (stereo not drawn) | -0.216
COC(=O)C1=C(C)N(C)C(C)=C(C(=O)OC)C1c1ccncc1 | 6.18
COc1cccc(C(=O)N(Cc2ccccc2)c2ccccn2)c1 | 0.316
CCN(C(=O)c1cc2c(=O)n3ccccc3nc2n1C)c1cccc(C)c1 | -5.13
COc1ccc(Cn2c(C(=O)O)c(CNCc3cccc(C)c3)c3ccc(OC)cc32)cc1 | 5.68
CCn1c(/C=C/c2c(C)n(C)c3ccc(OC)cc23)nc2ccccc2c1=O | 8.47
Cc1cccn2c(=O)c3cc(C(=O)NCCc4ccccc4)c(=N)n(CCOCCO)c3nc12 | 1.97
O=S(=O)(NC1CCCc2ccccc21)c1ccc(-n2cccn2)cc1 (stereo not drawn) | -0.231
Cn1c(=O)c2c(n(C)c1=O)n(CC(=O)NC(C)(C)C)c(=O)n2C | 1
CCC(C)NC(=O)Cn1cc(C=O)c2ccccc21 (stereo not drawn) | 2.35

SMILES | % Inhibition @ 10 uM [%]
CCOc1ccc(-c2nc3s/c(=C\C=C\c4ccccc4OC)c(=O)n3n2)cc1 | -3.29
Cc1nc(C)c(-c2ccc(SCC(=O)NCc3ccc(Cl)cc3)nn2)s1 | -7.14
Cc1ccnc(/N=C/c2nc(-c3ccccc3Br)oc2O)c1 | -2.27
COc1ccc(Cn2c(C(=O)O)c(CNCCc3ccc(OC)cc3OC)c3ccc(C)cc32)cc1 | -5.24
CCN1CCCC1CNCc1c(C(=O)O)n(Cc2ccc(F)cc2Cl)c2ccccc12 (stereo not drawn) | 3.34
O=C(/N=C1\SC2CS(=O)(=O)CC2N1c1cccc(C(F)(F)F)c1)c1ccccc1 (stereo not drawn) | 4.11
CN1CCN(CC(=O)Nc2c(C(=O)C3CC3)oc3ccccc23)CC1 | -6.08
Cc1ccc(N(CC(=O)N2CCCCCC2)S(=O)(=O)c2ccc(F)cc2)cc1 | 4.32
Cc1cccc(-c2nc(CS(=O)CC(=O)N3CC(C)CC(C)C3)c(C)o2)c1 (stereo not drawn) | 0.689
COc1ccc(NS(=O)(=O)c2ccc(OC)c(Cl)c2Cl)cc1 | 1.64
CCCNC(=O)CN(c1ccc(C)cc1C)S(=O)(=O)c1ccccc1 | 4.5
CC1(C)Cc2c(sc3c2C(N)=NCN3)CO1 | -0.274
COc1ccc(C(=O)NCc2ccc(Cl)cc2)cc1 | -4.57
CCOc1ccc(/N=c2/sc3ccccc3n2C)cc1 | 1.73
Cc1ccc(CNC(=O)CN(C2CCCCC2)S(C)(=O)=O)cc1 | -2.74
Cc1ccc(NC(=O)c2ccc(CSc3ncccn3)cc2)cc1 | -3.33
COc1ccc(-c2[nH]nc3nc(-c4ccccc4O)cc(C(=O)O)c23)cc1 | 5.62
COc1ccc(S(=O)(=O)Nc2ccc(F)cc2)cc1 | -3.04
COc1ccc(CC(=O)N2N=C(C)CC2(O)c2cccnc2)cc1 (stereo not drawn) | -1.35
O=S(=O)(c1ccccc1)c1nc(-c2ccc(Cl)cc2)oc1NCCCN1CCOCC1 | -1.36
COc1ccc(N(CC(=O)N(C)Cc2ccccc2)S(=O)(=O)c2ccccc2)cc1 | -11.4

— publication PMC6919601, “Identification of Plasmodium dipeptidyl aminopeptidase allosteric inhibitors by high throughput screening” (PLoS ONE, 2019)
